Results published in publication PMC4336329 (PLoS ONE, 2015).
About 14,000 (4.5%) of roughly 310,000 compounds showed an effect of 50% or more. The effect is printed as a negative number. The list shows a part of the results.

target: human ether-à-go-go-related gene (hERG) potassium channel (human, UniProt Q12809); test: primary screen, population patch clamp on CHO cells stably expressing hERG
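Note: peak tail current of the secondary pulse compared with the same well before compound.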

Chain of human ether-à-go-go-related gene (hERG) potassium channel (Q12809 whole entry, looked up): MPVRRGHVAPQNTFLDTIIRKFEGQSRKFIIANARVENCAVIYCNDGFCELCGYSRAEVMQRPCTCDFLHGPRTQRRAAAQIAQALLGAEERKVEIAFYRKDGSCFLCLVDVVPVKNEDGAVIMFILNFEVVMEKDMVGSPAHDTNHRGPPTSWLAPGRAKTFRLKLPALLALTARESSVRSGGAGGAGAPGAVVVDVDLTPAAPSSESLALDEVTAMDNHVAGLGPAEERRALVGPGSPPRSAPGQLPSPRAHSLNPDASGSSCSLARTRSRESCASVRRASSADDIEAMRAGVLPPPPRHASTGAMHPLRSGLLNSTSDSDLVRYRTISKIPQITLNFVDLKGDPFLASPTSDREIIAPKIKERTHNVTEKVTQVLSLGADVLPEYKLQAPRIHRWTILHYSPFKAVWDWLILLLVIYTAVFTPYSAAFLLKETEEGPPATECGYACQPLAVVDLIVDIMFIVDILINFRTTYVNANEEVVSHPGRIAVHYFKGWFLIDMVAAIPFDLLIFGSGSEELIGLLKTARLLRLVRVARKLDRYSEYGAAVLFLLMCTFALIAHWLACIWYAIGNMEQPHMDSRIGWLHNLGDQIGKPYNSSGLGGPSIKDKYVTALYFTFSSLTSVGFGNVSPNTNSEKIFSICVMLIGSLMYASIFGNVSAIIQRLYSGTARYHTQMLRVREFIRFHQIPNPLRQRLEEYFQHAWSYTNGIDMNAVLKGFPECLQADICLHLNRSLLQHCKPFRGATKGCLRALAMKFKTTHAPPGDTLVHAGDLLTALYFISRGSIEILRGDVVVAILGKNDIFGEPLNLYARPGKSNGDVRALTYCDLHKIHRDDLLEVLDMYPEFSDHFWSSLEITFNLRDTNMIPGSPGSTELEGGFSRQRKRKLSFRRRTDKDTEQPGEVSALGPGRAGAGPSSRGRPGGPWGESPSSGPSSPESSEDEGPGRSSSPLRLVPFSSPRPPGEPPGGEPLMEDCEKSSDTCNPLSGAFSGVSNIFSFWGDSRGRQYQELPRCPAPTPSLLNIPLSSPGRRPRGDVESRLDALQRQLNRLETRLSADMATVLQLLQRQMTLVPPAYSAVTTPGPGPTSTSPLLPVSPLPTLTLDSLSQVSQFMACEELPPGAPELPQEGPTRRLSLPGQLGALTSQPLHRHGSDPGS

| SMILES | hERG current change (%, negative = inhibition) at 10uM [%] |
| --- | --- |
| CCCCCc1cc(=O)oc2c(C(CCN3CCCC3)c3ccc(N(C)C)cc3)c(OC)cc(OC)c12 (centres unmarked) | -57.5 |
| Cc1noc(C)c1CSc1nnc(-c2ccncc2)n1-c1cccc(Cl)c1C | -32.1 |
| CSc1cccc(NC(=O)c2ccc(CN3CCc4ccccc4C3)cc2)c1 | -1.52 |
| CCOc1ccc(OCC(=O)Nc2ccc(S(N)(=O)=O)cc2)cc1 | -7.32 |
| O=C(CP(=O)(c1ccccc1)c1ccccc1)Nc1nc2ccccc2s1 | 16.1 |
| Cc1cc(=O)oc2c3c4c(cc12)OCCN4CCC3 | -20.7 |
| CCOC(=O)C(C)Sc1nc(N)c(NC(=O)c2ccc(OC)c(OC)c2)c(=O)[nH]1 (centres unmarked) | -9.72 |
| O=C(CNS(=O)(=O)c1cccc(Cl)c1)Nc1ccc(-c2nc3ccccc3s2)cc1 | 10.9 |
| Cc1cccc(-n2c(N)c(-c3nc4ccccc4n3C)c3nc4ccccc4nc32)c1 | -13.3 |
| O=C(NCc1ccc2c(c1)OCO2)c1ccc(COc2cccc(Cl)c2)o1 | 2.23 |
| O=C1c2ccccc2S(=O)(=O)N1Cc1nc2ccccc2s1 | -5.83 |
| COc1ccccc1CN(C(=O)CNC(=O)c1ccco1)C(C(=O)NCC1CCCO1)c1ccc(OC)c(OC)c1 (centres unmarked) | 20.8 |
| CC(c1ccccc1)c1nnc(N)s1 (centres unmarked) | 16.6 |
| CCCCOC(=O)Nc1ccc2c(C)cc(=O)oc2c1 | -16.9 |
| COc1ccc(S(=O)(=O)N2CCN(Cc3cccc(Cl)c3)CC2)cc1 | -0.0755 |
| Cc1cccc(NC(=O)c2cc(Cl)nc3ccccc23)n1 | -31.7 |
| C=C(C)Cn1c(=O)c2c(nc3n2CCCN3Cc2ccccc2)n(C)c1=O | -17.9 |
| N#Cc1c(-c2ccccc2)nc(-c2cccnc2)[nH]c1=O | 17.6 |
| CCN(C(=O)COC(=O)c1ccc(Cl)cc1N)C1CCCCC1 | -9.34 |
| O=C(Nc1ccc(Cl)cc1)c1ccc2c(c1)OCO2 | 11.8 |
| CCNC(=S)NN(c1ccccc1)c1ccccc1 | -4.36 |
| Cc1ccc(S(=O)(=O)C2C(=O)NC3(C)CC2c2ccccc2O3)cc1 (centres unmarked) | -29.9 |

| SMILES | hERG current change (%, negative = inhibition) at 10uM [%] |
| --- | --- |
| CS(=O)(=O)c1ccc(Cl)c(NC(=O)COC(=O)CNC(=O)c2cccs2)c1 | 10.6 |
| CCc1ccc(-c2cc(C)no2)cc1S(=O)(=O)N1CC(=O)Nc2ccccc21 | 11.5 |
| COc1ccc([N+](=O)[O-])cc1NC(=O)C1CCCNC1=O (centres unmarked) | -3.85 |
| Cc1ccccc1NC(=S)NC(=O)c1cc(-c2ccccc2)nc2ccccc12 | 5.16 |
| CC(=O)OCC(=O)[C@H]1CC[C@H]2[C@@H]3CCC4=CC(=O)CC[C@]4(C)[C@H]3CC[C@]12C | -8.11 |
| CCc1nc(SCC(=O)NC2CCCC2)c2oc3ccccc3c2n1 | 3.41 |
| Cc1ccc(N2C(=O)c3ccc(C(=O)NCCN4CCOCC4)cc3C2=O)cc1 | -6.85 |
| COc1ccc(-c2cn[nH]c2-c2ccc(OCc3ccc(F)cc3)cc2O)cc1OC | 13.3 |
| CCOC(=O)C1=C(C(F)(F)F)Nc2ncnn2C1c1cc(OC)c(OC)cc1OC (centres unmarked) | 3.22 |
| CC(C)c1ccc(OCC(=O)N2CCN(C(=O)c3ccco3)CC2)cc1 | -49.1 |
| COc1cccc(C(=O)NNC(=S)NC2CCCCC2)c1 | 8.31 |
| COc1cc(CN2CCCN(C)CC2)cc([N+](=O)[O-])c1O | 21.9 |
| CSc1nc(Sc2cccc(Cl)c2)c2ccccc2n1 | 6.5 |
| O=C(CCCC1=NS(=O)(=O)c2ccccc2N1)N1CCN(c2ccc([N+](=O)[O-])cc2)CC1 | -1.34 |
| Cc1nnc(SCC(=O)Nc2ccc(Br)cn2)[nH]c1=O | 9.72 |
| COC(=O)C1CN(C(=O)COc2ccc(Cl)cc2Cl)c2ccccc2O1 (centres unmarked) | -2.51 |
| O=C1C(C=Nc2ccc(F)cc2)=C(O)c2ccccc21 | 6.75 |
| O=C(NC(Cc1c[nH]c2ccccc12)C(=O)O)/C(=C/c1ccco1)NC(=O)c1ccccc1 (centres unmarked) | 15 |
| COc1ccc(OC)c(S(=O)(=O)Nc2cccc(-c3ccc(N4CCCCCC4)nn3)c2)c1 | 18.9 |
| O=C(Oc1coc(CSc2nnc(NC(=O)C3CC3)s2)cc1=O)c1c(F)cccc1F | 1.38 |
| CCCc1nn2c(=O)c(C(c3ccc(C)cc3)c3c(O)nc4sc(CCC)nn4c3=O)c(O)nc2s1 | 13.2 |
| CC(=O)Nc1ccc2nc(NC(=O)CN3CCOCC3)sc2c1 | 18.7 |

| SMILES | hERG current change (%, negative = inhibition) at 10uM [%] |
| --- | --- |
| COc1ccccc1NC(=O)C(=O)NCCC1CCCCN1S(=O)(=O)c1ccc(F)cc1 (centres unmarked) | 3.36 |
| COCCn1c(SCC(=O)NCc2ccccc2)nnc1-c1ccco1 | 5.7 |
| O=C(COC(=O)Cn1cnc2ccccc21)Nc1cccc([N+](=O)[O-])c1 | 14.2 |
| CCOC(=O)C1=C(C)N=c2s/c(=C\c3ccncc3)c(=O)n2C1c1ccc2c(c1)OCO2 (centres unmarked) | 1.94 |
| O=C(NCCCn1ccnc1)/C(=C\c1cccnc1)NC(=O)c1ccco1 | -0.164 |
| CC(NC(=O)c1ccc2c(=O)n3c(nc2c1)CCC3)c1ccc(S(N)(=O)=O)cc1 (centres unmarked) | 5.62 |
| O=[N+]([O-])c1ccc2nc(SCc3cn4ccccc4n3)[nH]c2c1 | 3.53 |
| COc1cc(S(=O)(=O)NCc2cccnc2)ccc1F | -5.7 |
| O=C(O)c1ccc(-n2cccc2/C=C2/SC(=O)N(CC(=O)N3CCCC3)C2=O)cc1 | 19.1 |
| COc1ccc(N2C(=O)NC(=O)/C(=C\c3cn(C)c4ccccc34)C2=O)cc1 | 16.9 |
| Cc1ccc(C(=O)N2CCN(CCNC(=O)C(=O)NCc3ccc(Cl)cc3)CC2)cc1 | -74 |
| Brc1ccc(C2=CC(c3cccs3)n3ncnc3N2)cc1 (centres unmarked) | -21 |
| O=C1CN(C(=O)COC(=O)c2ccccc2NC(=O)c2ccco2)c2ccccc2N1 | -22.6 |
| COc1ccccc1CN1CC(C(=O)N(C)CCOc2ccccc2)CCC1=O (centres unmarked) | -9.29 |
| CCc1ccccc1NC(=O)Cn1nnc(C(=O)NCc2cccc(OC)c2)c1N | 9.99 |
| COCc1nnc(NC(=O)c2ccc(NC(C)=O)cc2)s1 | 2.68 |
| O=C(Nc1ccccc1)C1=C[C@H](c2ccccc2)C[C@H](OCc2ccc(CO)cc2)O1 | -3.42 |
| Cn1cncc1C(=O)c1ccccc1 | 15.3 |
| CC(C)CNC(=S)NC1CC2CCCC(C1)N2Cc1ccco1 (centres unmarked) | -26.6 |
| Cc1cccc(C(=O)NCC2CCCO2)c1 (centres unmarked) | 17.8 |
| CN(/N=C/c1cccs1)c1cc(=O)n(C)c(=O)[nH]1 | -1.93 |
| CC1=CCC(C(=O)O)(C(=O)N/N=C/c2cccnc2)C(c2ccccc2)C1 (centres unmarked) | -19.1 |

| SMILES | hERG current change (%, negative = inhibition) at 10uM [%] |
| --- | --- |
| O=C(NC(=S)Nc1ccccc1N1CCOCC1)c1ccc(-c2cccc(Cl)c2)o1 | 9.91 |
| CC(Sc1nnc(-c2ccccc2F)n1N)C(=O)NCC1CCCO1 (centres unmarked) | 1.71 |
| COc1cccc(NC(=O)Nc2nnc(Cc3ccccc3)s2)c1 | 12.5 |
| C=CCSc1nc(Oc2ccccc2)c2sccc2n1 | 0.33 |
| COc1ccc(CCNC(=O)CN(c2ccc(C)cc2)S(=O)(=O)c2c(C)noc2C)cc1OC | -9.89 |
| OCC#CCSc1nnc(-c2ccncc2)o1 | -0.348 |
| COc1ccccc1/C=C1/SC(=S)N(CCC(=O)Nc2cccnc2)C1=O | 9.87 |
| CCOC(=O)/C(C#N)=C(\O)c1ccc(NC(=O)c2ccc([N+](=O)[O-])cc2)cc1 | 7.37 |
| CSc1nc2ccccc2cc1/C=C(\C#N)c1cccc(Cl)c1 | 8.2 |
| O=C(Nc1ccccc1Cl)c1csc(-c2cccnc2)n1 | 1.9 |
| CCCCN(CCCC)CCNC(=O)CSCc1ccc(C)cc1.O=C(O)C(=O)O | -63.2 |
| COc1ccc(F)cc1C(=O)COC(=O)c1n[nH]c(=O)c2ccccc12 | -12.8 |
| CCCCCCSc1ccc(-c2nc3ccc(C)cn3c2NC2CCCCC2)cc1.O=C(O)C(F)(F)F | 10.9 |
| OCCNc1cc(Cl)ncn1 | 4.5 |
| COc1ccc(C2C(C(=O)c3cccs3)=C(O)C(=O)N2c2cccc(C)n2)cc1OC (centres unmarked) | 2.25 |
| Cc1ccc(C)c(S(=O)(=O)c2c(N)n(/N=C/c3ccco3)c3nc4ccccc4nc23)c1 | -5.78 |
| CSC1=C(C#N)C(c2ccccc2)C(C(C)=O)=C(C)N1 (centres unmarked) | 10.6 |
| COc1ccccc1C(=O)NNC(=O)C(=O)NCc1ccccc1 | 2.4 |
| Cc1cccc(C)c1OCC(=O)N/N=C/c1cc2c(cc1[N+](=O)[O-])OCO2 | -4.6 |
| COc1ccc(S(=O)(=O)N2CC(=O)Nc3ccccc32)cc1C | 0.792 |
